Reference: a compilation of properties of binary mixtures (doi:10.1016/j.fluid.2015.05.023)
Some of these densities may be calculated back from excess volumes.

Test: xn = mol fraction of the nth substance listed
Conditions: 100 kPa

CCCn1cc[n+](C)c1.O=S(=O)([N-]S(=O)(=O)C(F)(F)F)C(F)(F)F + O
x2 = 0.272
Conditions | mass density [kg/m3]
298.15 K | 1464.3
303.15 K | 1459.1
313.15 K | 1448.9
328.15 K | 1433.8
333.15 K | 1428.8
338.15 K | 1423.8
348.15 K | 1413.7
358.15 K | 1404
363.15 K | 1399.2

CCCCCCn1cc[n+](CCCCCC)c1.O=S(=O)([N-]S(=O)(=O)C(F)(F)F)C(F)(F)F + O
x2 = 0.1489
Conditions | mass density [kg/m3]
298.15 K | 1252.5
308.15 K | 1243.9
313.15 K | 1239.6
318.15 K | 1235.3
323.15 K | 1231
333.15 K | 1222.6
338.15 K | 1218.4
343.15 K | 1214.2
348.15 K | 1210
353.15 K | 1205.9
358.15 K | 1201.7
363.15 K | 1197.7

CCCCCCCn1cc[n+](CCCCCCC)c1.O=S(=O)([N-]S(=O)(=O)C(F)(F)F)C(F)(F)F + O
x2 = 0.1365
Conditions | mass density [kg/m3]
298.15 K | 1222.8
303.15 K | 1218.6
308.15 K | 1214.5
313.15 K | 1210.3
318.15 K | 1206.1
323.15 K | 1202
328.15 K | 1197.8
333.15 K | 1193.7
338.15 K | 1189.6
343.15 K | 1185.5
348.15 K | 1181.5
353.15 K | 1177.4
358.15 K | 1173.4
363.15 K | 1169.4

CCCCCCCCCCCn1cc[n+](C)c1.O=S(=O)([N-]S(=O)(=O)C(F)(F)F)C(F)(F)F + O
x2 = 0.1567
Conditions | mass density [kg/m3]
298.15 K | 1257.7
303.15 K | 1253.4
308.15 K | 1249.1
313.15 K | 1244.8
318.15 K | 1240.5
323.15 K | 1236.2
328.15 K | 1232
333.15 K | 1227.7
343.15 K | 1219.3
348.15 K | 1215.1
353.15 K | 1210.9
358.15 K | 1206.8
363.15 K | 1202.7

CCCn1cc[n+](CCC)c1.O=S(=O)([N-]S(=O)(=O)C(F)(F)F)C(F)(F)F + O
x2 = 0.2232
Conditions | mass density [kg/m3]
298.15 K | 1391.3
308.15 K | 1381.6
318.15 K | 1372
323.15 K | 1367.2
328.15 K | 1362.5
338.15 K | 1353
343.15 K | 1348.4
353.15 K | 1339.1
358.15 K | 1334.5

CCn1cc[n+](CC)c1.O=S(=O)([N-]S(=O)(=O)C(F)(F)F)C(F)(F)F + O
x2 = 0.2772
Conditions | mass density [kg/m3]
298.15 K | 1462.9
303.15 K | 1457.8
308.15 K | 1452.7
313.15 K | 1447.7
323.15 K | 1437.6
328.15 K | 1432.6
333.15 K | 1427.6
338.15 K | 1422.7
343.15 K | 1417.8
348.15 K | 1412.8
353.15 K | 1407.9
363.15 K | 1398.1

CCCC[n+]1ccn(C)c1.O=S(=O)([N-]S(=O)(=O)C(F)(F)F)C(F)(F)F + O
x2 = 0.257
Conditions | mass density [kg/m3]
298.15 K | 1428.1
303.15 K | 1423.2
308.15 K | 1418.3
313.15 K | 1413.4
318.15 K | 1408.5
328.15 K | 1398.8
338.15 K | 1389.2
348.15 K | 1379.7
358.15 K | 1370.3
363.15 K | 1365.5

Cn1cc[n+](C)c1.O=S(=O)([N-]S(=O)(=O)C(F)(F)F)C(F)(F)F + O
x2 = 0.3548
Conditions | mass density [kg/m3]
298.15 K | 1546.6
303.15 K | 1541.2
308.15 K | 1535.9
313.15 K | 1530.5
318.15 K | 1525.3
323.15 K | 1520
328.15 K | 1514.7
333.15 K | 1509.5
338.15 K | 1504.3
343.15 K | 1499.1
348.15 K | 1493.9
353.15 K | 1488.8
358.15 K | 1483.6
363.15 K | 1478.5

CCCCCn1cc[n+](C)c1.O=S(=O)([N-]S(=O)(=O)C(F)(F)F)C(F)(F)F + O
x2 = 0.2211
Conditions | mass density [kg/m3]
298.15 K | 1396.6
303.15 K | 1391.7
308.15 K | 1386.8
323.15 K | 1372.4
328.15 K | 1367.7
333.15 K | 1363
338.15 K | 1358.1
343.15 K | 1353.4
348.15 K | 1348.7
353.15 K | 1344
358.15 K | 1339.2
363.15 K | 1334.6

CCCCn1cc[n+](CCCC)c1.O=S(=O)([N-]S(=O)(=O)C(F)(F)F)C(F)(F)F + O
x2 = 0.1843
Conditions | mass density [kg/m3]
298.15 K | 1337.3
303.15 K | 1332.7
313.15 K | 1323.6
318.15 K | 1319
323.15 K | 1314.5
328.15 K | 1310
333.15 K | 1305.5
338.15 K | 1301
343.15 K | 1296.6
348.15 K | 1292.2
353.15 K | 1287.8

CCCCCn1cc[n+](CCCCC)c1.O=S(=O)([N-]S(=O)(=O)C(F)(F)F)C(F)(F)F + O
x2 = 0.1575
Conditions | mass density [kg/m3]
298.15 K | 1290
303.15 K | 1285.6
308.15 K | 1281.1
318.15 K | 1272.3
323.15 K | 1267.9
328.15 K | 1263.6
333.15 K | 1259.2
343.15 K | 1250.6
348.15 K | 1246.4
353.15 K | 1242.1
363.15 K | 1233.7

CCCCCCCCCn1cc[n+](C)c1.O=S(=O)([N-]S(=O)(=O)C(F)(F)F)C(F)(F)F + O
x2 = 0.1736
Conditions | mass density [kg/m3]
303.15 K | 1289.2
313.15 K | 1280.4
328.15 K | 1267.3
333.15 K | 1263
338.15 K | 1258.7
343.15 K | 1254.4
348.15 K | 1250.1
353.15 K | 1245.9

CC[n+]1ccn(C)c1.O=S(=O)([N-]S(=O)(=O)C(F)(F)F)C(F)(F)F + O
x2 = 0.298
Conditions | mass density [kg/m3]
308.15 K | 1490.5
318.15 K | 1480.2
323.15 K | 1475
328.15 K | 1469.9
338.15 K | 1459.8
343.15 K | 1454.7
348.15 K | 1449.3
353.15 K | 1444.7
358.15 K | 1439.5
363.15 K | 1434.3

CCCCCCCCn1cc[n+](CCCCCCCC)c1.O=S(=O)([N-]S(=O)(=O)C(F)(F)F)C(F)(F)F + O
x2 = 0.1246
Conditions | mass density [kg/m3]
298.15 K | 1191.7
313.15 K | 1179.5
318.15 K | 1175.4
323.15 K | 1171.4
328.15 K | 1167.3
333.15 K | 1163.3
338.15 K | 1159.3
343.15 K | 1155.3
348.15 K | 1151.3
353.15 K | 1147.3
363.15 K | 1139.5

CCCCCCC[n+]1ccn(C)c1.O=S(=O)([N-]S(=O)(=O)C(F)(F)F)C(F)(F)F + O
x2 = 0.1971
Conditions | mass density [kg/m3]
298.15 K | 1337
303.15 K | 1332.4
313.15 K | 1323.3
328.15 K | 1309.8
333.15 K | 1305.3
338.15 K | 1300.9
343.15 K | 1296.5
348.15 K | 1292.1
353.15 K | 1287.7
363.15 K | 1279
